Test results taken from patent publication US20250179140A1 (Bristol-Myers Squibb, published 2025).

B1: IL2-CD25([…]) (other)
chain: [sequence of about 150 residues not given]GGGSGGGSGGGSELCDDDPPEIPHATFKAMAYKEGTMLNCECKRGFRRIKSGSLYMLCTGNSSHSSWDNQCQCTSSATRNTTKQVTPQPEEQKERKTTEMQSPMQPVDQASLPGHCREPPPWENEATERIYHFVVGQMVYYQCVQGYRALHRGPAESVCKMTHGKTRWTQPQLICTGE
notes: also called hIL2-CD25([…])
B2: IL2-T3A-CD25([…])-N89Q-T95A-T106A (SEQ ID NO: 202) (other)
chain: [sequence of about 150 residues not given]GGGSGGGSGGGSELCDDDPPEIPHATFKAMAYKEGTMLNCECKRGFRRIKSGSLYMLCTGNSSHSSWDNQCQCTSSATRQTTKQVAPQPEEQKERKATEMQSPMQPVDQASLPGHCREPPPWENEATERIYHFVVGQMVYYQCVQGYRALHRGPAESVCKMTHGKTRWTQPQLICTGE
notes: also called hIL2-CD25 (quad aglycosylated)
B3: IL2(C145V)-CD25([…]) (other)
chain: [sequence of about 150 residues with changes not given]GGGSGGGSGGGSELCDDDPPEIPHATFKAMAYKEGTMLNCECKRGFRRIKSGSLYMLCTGNSSHSSWDNQCQCTSSATRNTTKQVTPQPEEQKERKTTEMQSPMQPVDQASLPGHCREPPPWENEATERIYHFVVGQMVYYQCVQGYRALHRGPAESVCKMTHGKTRWTQPQLICTGEMETSQFPGEEKPQASPEGRPESETSCLVTTTDFQIQTEMAATMETSIFTTEYQ
notes: also called IL2-CV-CD25([…])
B4: IL2([…])-(G3S)3-CD25([…]) (other)
chain: [sequence of about 150 residues not given]GGGSGGGSGGGSELCDDDPPEIPHATFKAMAYKEGTMLNCECKRGFRRIKSGSLYMLCTGNSSHSSWDNQCQCTSSATRNTTKQVTPQPEEQKERKTTEMQSPMQPVDQASLPGHCREPPPWENEATERIYHFVVGQMVYYQCVQGYRALHRGPAESVCKMTHGKTRWTQPQLICTGEMETSQFPGEEKPQASPEGRPESETSCLVTTTDFQIQTEMAATMETSIFTTEYQ
notes: also called IL2-CD25([…]); hIL2-CD25([…])
B5: hIL2-CD25([…])-His (other)
chain: [sequence of about 150 residues not given]GGGSGGGSGGGSELCDDDPPEIPHATFKAMAYKEGTMLNCECKRGFRRIKSGSLYMLCTGNSSHSSWDNQCQCTSSATRNTTKQVTPQPEEQKERKTTEMQSPMQPVDQASLPGHCREPPPWENEATERIYHFVVGQMVYYQCVQGYRALHRGPAESVCKMTHGKTRWTQPQLICTGEMETSQFPGEEKPQASPEGRPESETSGGHHHHHH

How the values were obtained:
[1] = molecular target: T1, biot-hCD25-BioP-TVMV-His which had been His cleaved (hCD25) (human, UniProt P01589 22-240, biotinylated (biot-; BioP tag), captured on streptavidin); test: SPR, observed equilibrium KD; hCD25 captured on streptavidin chip
T1 construct: Soluble human CD25 captured at low density (~300 RU) on an SA sensor chip; also called human sCD25; sCD25; not shown: BioP-TVMV tag remnant after cleavage of the His tag
T1 sequence (looked up): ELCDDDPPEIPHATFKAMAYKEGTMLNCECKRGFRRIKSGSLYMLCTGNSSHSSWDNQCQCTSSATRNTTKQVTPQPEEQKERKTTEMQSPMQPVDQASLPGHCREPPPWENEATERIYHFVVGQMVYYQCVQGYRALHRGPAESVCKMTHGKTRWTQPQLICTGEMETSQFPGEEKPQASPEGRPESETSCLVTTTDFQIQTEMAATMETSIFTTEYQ

[2] = molecular target: T2, IL2R endogenously expressed on the T cell line, Kit225 (human, UniProt P01589 22-272; P14784 27-551; P31785 23-369); test: cell-based or functional assay
T2 sequence (looked up) 1: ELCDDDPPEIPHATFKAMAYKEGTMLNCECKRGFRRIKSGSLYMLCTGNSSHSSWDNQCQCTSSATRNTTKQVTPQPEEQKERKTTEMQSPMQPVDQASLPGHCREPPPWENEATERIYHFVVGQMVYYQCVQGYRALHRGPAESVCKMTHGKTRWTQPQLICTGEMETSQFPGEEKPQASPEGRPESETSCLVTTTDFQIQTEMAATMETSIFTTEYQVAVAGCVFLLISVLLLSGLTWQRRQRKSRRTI
T2 sequence (looked up) 2: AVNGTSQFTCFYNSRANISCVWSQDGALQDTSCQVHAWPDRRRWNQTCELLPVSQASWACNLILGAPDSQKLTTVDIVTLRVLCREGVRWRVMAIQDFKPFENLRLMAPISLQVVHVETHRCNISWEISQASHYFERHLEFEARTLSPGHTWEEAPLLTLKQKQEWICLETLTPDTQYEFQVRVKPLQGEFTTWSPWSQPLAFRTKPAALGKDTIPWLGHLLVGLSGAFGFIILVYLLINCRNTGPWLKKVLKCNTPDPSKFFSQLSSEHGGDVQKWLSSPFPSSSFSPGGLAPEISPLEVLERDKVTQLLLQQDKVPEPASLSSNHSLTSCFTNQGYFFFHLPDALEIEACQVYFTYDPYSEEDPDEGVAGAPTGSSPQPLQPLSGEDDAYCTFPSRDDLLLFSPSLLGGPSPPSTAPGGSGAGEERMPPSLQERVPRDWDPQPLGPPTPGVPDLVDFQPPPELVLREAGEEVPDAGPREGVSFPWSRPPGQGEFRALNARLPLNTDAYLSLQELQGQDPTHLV
T2 sequence (looked up) 3: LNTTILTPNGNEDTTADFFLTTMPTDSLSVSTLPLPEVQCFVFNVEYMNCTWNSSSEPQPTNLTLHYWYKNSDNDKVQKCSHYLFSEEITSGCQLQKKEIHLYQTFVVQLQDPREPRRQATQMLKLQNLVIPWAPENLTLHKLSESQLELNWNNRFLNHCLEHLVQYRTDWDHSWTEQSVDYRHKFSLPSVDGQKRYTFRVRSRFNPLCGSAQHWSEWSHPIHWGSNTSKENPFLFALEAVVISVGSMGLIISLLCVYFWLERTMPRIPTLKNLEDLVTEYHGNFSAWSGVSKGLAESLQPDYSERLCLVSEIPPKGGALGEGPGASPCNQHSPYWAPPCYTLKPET

[3] = molecular target: T3, hCD122(27-241)-hFc-D/hCD132(23-263)-hFc-K heterodimeric Fc fusion (hIL2-Rb/g) (human, UniProt P14784 27-241; P31785 23-263); test: SPR, observed equilibrium KD; hIL2-Rb/g Fc heterodimer captured via Protein A on CM5 chip
T3 construct: range 27-241;range 23-263; Captured via Protein A immobilised on a CM5 chip; also called sIL2Rβ/IL2Rγ heterodimer; sIL2Rβ/IL2Rγ heteroreceptors; not shown: hFc-D: human Fc, one side of a heterodimeric pair; hFc-K: human Fc, other side of the heterodimeric pair
T3 sequence (looked up) 1: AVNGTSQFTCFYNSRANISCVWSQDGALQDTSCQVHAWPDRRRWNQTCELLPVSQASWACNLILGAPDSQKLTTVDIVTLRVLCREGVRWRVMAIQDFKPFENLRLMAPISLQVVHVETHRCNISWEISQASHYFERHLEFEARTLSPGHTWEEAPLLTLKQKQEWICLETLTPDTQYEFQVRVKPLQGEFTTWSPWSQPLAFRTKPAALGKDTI
T3 sequence (looked up) 2: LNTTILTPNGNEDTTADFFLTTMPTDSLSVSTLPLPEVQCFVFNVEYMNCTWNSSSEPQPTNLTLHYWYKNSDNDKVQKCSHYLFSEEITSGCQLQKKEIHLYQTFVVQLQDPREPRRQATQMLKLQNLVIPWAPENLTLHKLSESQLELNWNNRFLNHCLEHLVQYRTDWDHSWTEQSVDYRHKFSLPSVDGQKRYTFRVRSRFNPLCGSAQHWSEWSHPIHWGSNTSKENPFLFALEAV

[4] = molecular target: T4, IL2R on human primary cells (PBMCs or whole blood: Treg, CD4 foxp3- non-Treg, CD8 T cells, NK cells) (human, UniProt P01589 22-272; P14784 27-551; P31785 23-369); test: cell-based or functional assay
T4 sequence (looked up) 1: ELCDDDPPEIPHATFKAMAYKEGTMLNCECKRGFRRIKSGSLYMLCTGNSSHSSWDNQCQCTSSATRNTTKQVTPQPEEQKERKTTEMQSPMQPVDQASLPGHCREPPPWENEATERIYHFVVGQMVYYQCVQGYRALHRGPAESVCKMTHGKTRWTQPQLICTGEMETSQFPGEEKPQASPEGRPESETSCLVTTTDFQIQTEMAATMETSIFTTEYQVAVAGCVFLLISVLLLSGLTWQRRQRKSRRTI
T4 sequence (looked up) 2: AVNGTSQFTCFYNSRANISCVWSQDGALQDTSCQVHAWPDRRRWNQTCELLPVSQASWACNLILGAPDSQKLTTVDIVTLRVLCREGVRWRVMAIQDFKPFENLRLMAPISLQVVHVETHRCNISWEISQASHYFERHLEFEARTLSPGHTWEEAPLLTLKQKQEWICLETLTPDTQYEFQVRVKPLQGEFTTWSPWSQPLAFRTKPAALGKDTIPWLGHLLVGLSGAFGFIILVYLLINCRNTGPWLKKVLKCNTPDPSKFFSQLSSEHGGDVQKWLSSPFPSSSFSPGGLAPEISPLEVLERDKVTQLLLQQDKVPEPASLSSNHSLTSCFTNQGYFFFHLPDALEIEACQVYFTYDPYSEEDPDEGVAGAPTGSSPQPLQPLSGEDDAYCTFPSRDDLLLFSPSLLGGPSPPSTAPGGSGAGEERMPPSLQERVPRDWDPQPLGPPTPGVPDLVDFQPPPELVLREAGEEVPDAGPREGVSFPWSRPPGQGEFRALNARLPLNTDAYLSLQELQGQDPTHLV
T4 sequence (looked up) 3: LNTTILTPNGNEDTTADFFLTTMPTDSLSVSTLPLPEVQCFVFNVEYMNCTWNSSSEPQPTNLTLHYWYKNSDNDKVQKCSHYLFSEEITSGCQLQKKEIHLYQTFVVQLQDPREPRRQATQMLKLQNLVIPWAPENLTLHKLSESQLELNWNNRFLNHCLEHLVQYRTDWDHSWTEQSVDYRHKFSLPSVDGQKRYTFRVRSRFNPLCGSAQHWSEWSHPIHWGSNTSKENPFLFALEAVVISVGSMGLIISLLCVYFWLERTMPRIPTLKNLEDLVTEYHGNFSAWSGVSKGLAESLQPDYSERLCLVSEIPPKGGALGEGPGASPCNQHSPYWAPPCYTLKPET

[5] = molecular target: T2, IL2R endogenously expressed on the T …; test: cell-based or functional assay; remark: listed apart in the source

Binder | Kd [1] | EC50 (ng/ml), IRF1-GAS-Luc reporter in Kit225 cells [2] | Kd [3] | EC50 for pSTAT5 induction in Treg, human PBMCs [4] | Potency EC50 ng/ml, Kit225 reporter cells [5] | Ymax (%) % of wt IL2 response, Kit225 reporter cells [5] | EC50 for pSTAT5 induction in Treg, human whole blood [4]
B1 | 1.6 µM | 49 ng/mL | 0.054 µM | 4.6 ng/ml | – | – | –
B2 | 1.9 µM | – | – | – | 39.4 ng/mL | 85% | –
B3 | 2.1 µM | – | 0.063 µM | – | – | – | –
B4 | 2.4 µM | – | 0.044 µM | 10 ng/ml | – | – | 22 ng/ml
B5 | – | 210 ng/mL | – | – | – | – | –
